According to PubChem BioAssay AID686978 (National Center for Advancing Translational Sciences (NCATS), 2013):
Several values for one entry are separate records, joined by “and”; a condition that tells them apart may be missing. Equal values may be shown once. The campaign covered roughly 420,000 compounds. About 64,000 (15%) were called active. Inconclusive means that the source gave no clear call. Such entries were picked first, then a sample of the others. Calls follow the shape of the dose curve; as a rule, active = well fitted inhibition curve with a large enough effect; inconclusive = small, poorly fitted or top-dose-only effect; inactive = flat fitted curve, though single readings scatter. Potencies of inconclusive entries are doubtful fits and often do not repeat.

Test: qHTS for Inhibitors of human tyrosyl-DNA phosphodiesterase 1 (TDP1): qHTS in cells in absence of CPT; also: nearly all actives have a fitted effect of over 55% in size
Conditions: DT40 Tdp1-/- hTDP1 cells, no CPT, ATP luminescence, 48 h
Summary of the method: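 Seeded 400 DT40-hTDP1 cells/well (vehicle DMSO, no 20 nM CPT); pinned compounds; ≥48 hr at 37 °C; CellTiter-Glo luminescence as viability measure.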

[1] = activity change, negative = growth inhibition: at 46.2 µM (top of the series) unless noted
% is scaled to controls: 0 for no effect and ±100 for the full control effect; potency is read from the fitted curve at half-maximal effect; tags tell the direction and shape of the fitted curve.

In the case of `CCOC(=O)c1nc2sc3c(c2c(=O)n1C(C)C(=O)OCC)CCCC3` (centres undefined), the Potency [1] is reported as inconclusive: 23.1 µM [inhibitor, single point].
In the case of `COc1ccc2c(c1)C(=O)CC(c1ccccc1F)O2` (centres undefined), the Potency [1] is reported as “inactive”.
For `COc1ccc(Cc2nnc(Nc3c(C)cccc3C)o2)cc1OC`, the Potency [1] was “inactive”.
For `O=C1/C(=C/c2ccco2)SC(=S)N1CC1CCCO1` (centres undefined), the Potency [1] was “inactive”.
For `COc1ccc(Cl)cc1N(C)c1nc(N2CCN(S(=O)(=O)c3ccc(C)cc3)CC2)c2ccccc2n1`, the Potency [1] was active: 6.31 µM.
With `CCOc1cc(-c2nnc(NC(=O)c3ccco3)o2)cc(OCC)c1OCC` the Potency [1] was inconclusive: 20.6 µM [inhibitor, single point].
In the case of `CCCCOC(=O)c1ccc(NC(=O)c2ccc3c(c2)CCN3S(=O)(=O)c2ccccc2)cc1`, the Potency [1] is reported as active: 7.31 µM.
With `CC(=O)Nc1cccc(NCC(=O)Nc2cc(S(=O)(=O)N3CCCCC3)ccc2Cl)c1` the Potency [1] was inconclusive: 20.6 µM [inhibitor, partial curve].
With `O=S(=O)(c1cnc[nH]1)N1CCN(C(c2ccc(F)cc2)c2ccc(F)cc2)CC1` the Potency [1] was inconclusive: 29.1 µM [inhibitor, single point].
With `O=C(Nc1ccc(F)cc1F)c1ccc(-c2ccccc2)s1` the Potency [1] was inconclusive: 8.2 µM [inhibitor, partial curve].
With `O=[N+]([O-])c1ccc(COc2cccc(CN3CCCCC3)c2)cc1` the Potency [1] was active: 16.4 µM.
In the case of `COc1ccc2nc(NC(=O)c3sc4nc(C)cc(C)c4c3N)sc2c1`, the activity change, negative = growth inhibition [1] is reported as inconclusive: -33.1% [inhibitor].
With `CCCCC(c1nnnn1CCOC)N1CCN(C(=O)c2ccco2)CC1` (centres undefined) the Potency [1] was “inactive”.
In the case of `O=C(NCc1ccccc1)c1noc2c1CCCC2`, the Potency [1] is reported as inconclusive: 22.4 µM [inhibitor, single point].
With `CS(=O)(=O)N1CCC(C(=O)Nc2ccc(C(F)(F)F)cc2)CC1` the activity change, negative = growth inhibition [1] was inconclusive: -30.1% [inhibitor].
In the case of `CCOc1ccc2nc(NC(=O)CSc3ccccc3)sc2c1`, the Potency [1] is reported as active: 25.9 µM.
With `Cc1ccc2nc(CSc3nnc(NC(=O)COc4ccccc4F)s3)cc(=O)n2c1` the Potency [1] was “inactive”.
For `Cc1cccc(CSc2nc3c(cc2C#N)CCC3)c1`, the Potency [1] was “inactive”.
For `Cc1ccc(NC(=O)Nc2cccs2)nc1`, the Potency [1] was “inactive”.
With `CCCC(=O)Nc1ccc2nn(-c3ccc(CC)cc3)nc2c1` the Potency [1] was inconclusive: 14.6 µM [inhibitor, single point].
In the case of `O=C(CCCn1c(=O)c2sccc2n(Cc2c(F)cccc2Cl)c1=O)NCc1ccccc1`, the Potency [1] is reported as active: 16.4 µM.
For `CN(c1ccccc1)S(=O)(=O)c1ccc2c(c1)OCCO2`, the Potency [1] was inconclusive: 29.1 µM [inhibitor, single point].
In the case of `CC(C1CCN(Cc2cn(C)nc2-c2cccc(Cl)c2)CC1)N1CCOCC1` (centres undefined), the activity change, negative = growth inhibition [1] is reported as inconclusive: -31.1% [inhibitor].
With `COc1ccccc1/C=N/NC(=S)NCc1ccco1` the Potency [1] was inconclusive: 29.1 µM [inhibitor, single point].
For `CCOC(=O)CSc1nc2sc3c(c2c(=O)n1CC)CCCC3`, the Potency [1] was “inactive”.
In the case of `COc1ccc2sc(-c3ccccc3OC)c(-c3ccc(O)cc3)c2c1`, the Potency [1] is reported as inconclusive: 29.1 µM [inhibitor, single point].
With `CCOC(=O)c1c(C)nc2sc3c(=O)[nH]cnc3c2c1-c1ccc(OC)cc1` the Potency [1] was inconclusive: 13 µM [inhibitor, partial curve].
For `O=C(NCC1CCCN1S(=O)(=O)c1cccs1)c1ccc(F)cc1` (centres undefined), the Potency [1] was inconclusive: 23.1 µM [inhibitor, single point].
In the case of `CCOC(=O)C1CCN(C(=O)CNC(=O)OC(C)(C)C)CC1`, the Potency [1] is reported as inconclusive: 18.4 µM [inhibitor, partial curve].
For `COc1cccc(C(=O)NCCS(=O)(=O)N2CC(C)CC(C)C2)c1` (centres undefined), the Potency [1] was “inactive”.
With `Cc1ccc(NC(=S)NNc2ccc(C(=O)O)cc2[N+](=O)[O-])cc1C` the Potency [1] was “inactive”.
In the case of `OCCC1CN(Cc2cc3c(cc2Cl)OCO3)CCN1Cc1ccccc1` (centres undefined), the Potency [1] is reported as inconclusive: 1.84 µM [inhibitor, partial curve].
With `Cc1ccc(N2CCN(Cc3nnc(-c4ccc5c(c4)OCO5)o3)CC2)c(C)c1` the Potency [1] was active: 23.1 µM.
With `COc1cc(/C=N/NC(=O)Cn2nnc3ccccc32)ccc1O` the Potency [1] was inconclusive: 5.8 µM [inhibitor, single point].
With `O=C(NCC1Cc2cc(F)cc(-c3cnccn3)c2O1)c1cccc(-c2ccccc2F)c1` (centres undefined) the Potency [1] was active: 23.1 µM.
With `Cc1c(-c2nc(-c3ccc4c(c3)[nH]c(=O)n4C)no2)cccc1[N+](=O)[O-]` the Potency [1] was “inactive”.
For `O=C(c1cnc(N2CCOCC2)c2ccccc12)N1CCN(c2ccc(F)cc2)CC1`, the Potency [1] was inconclusive: 29.1 µM [inhibitor, single point].
With `O=C(c1ccc(Cl)c([N+](=O)[O-])c1)N(c1ccccn1)c1ccccn1` the Potency [1] was inconclusive: 29.1 µM [inhibitor, single point].
With `COc1cc(Nc2ccc(S(=O)(=O)N3CCN(C)CC3)cc2[N+](=O)[O-])cc(OC)c1` the Potency [1] was inconclusive: 25.9 µM [inhibitor, single point].
In the case of `CC(C)(C)NC(=O)C12CC3CC(CC(Cl)(C3)C1)C2`, the Potency [1] is reported as “inactive”.
With `COc1ccc(C2C=C(c3ccc(C)cc3)Nc3ncnn32)cc1` (centres undefined) the Potency [1] was inconclusive: 29.1 µM [inhibitor, single point].
In the case of `O=c1oc2cc(O)ccc2c2ccccc12`, the Potency [1] is reported as “inactive”.
With `CCOc1ccccc1NC(=O)CSc1n[nH]c(=O)n1-c1ccccc1` the Potency [1] was inconclusive: 29.1 µM [inhibitor, single point].
In the case of `C=CCC1=C/C(=C\c2c(N)n3nc(CC(=O)N4CCOCC4)sc3nc2=O)C=C(OC)C1=O`, the Potency [1] is reported as “inactive”.
With `O=C(NCc1ccccc1)/C(=C/c1ccco1)NC(=O)c1ccco1` the Potency [1] was “inactive”.
For `Cc1cccc(N2C(=O)CSC23C(=O)N(CC(=O)NCCc2ccccc2)c2ccccc23)c1` (centres undefined), the Potency [1] was inconclusive: 29.1 µM [inhibitor, single point].
In the case of `NC(=O)CN1CCN(S(=O)(=O)c2ccc(Br)cc2)CC1`, the Potency [1] is reported as “inactive”.
For `CCCCCn1nc(C(=O)N(CC)c2c(N)n(CCCC)c(=O)[nH]c2=O)c2ccccc2c1=O`, the Potency [1] was “inactive”.
For `CN1C(C(=O)Nc2ccccn2)=C(O)c2ccccc2S1(=O)=O`, the Potency [1] was inconclusive: 20.6 µM [inhibitor, single point], the activity change, negative = growth inhibition [1] was inconclusive: -36.4% [inhibitor] [at 21.1 µM] and the activity change, negative = growth inhibition (at 46.2 µM (top of the series)) was inactive: -15.9% and inactive: -21.2%.
For `O=C1CCc2cccc(O)c2N1`, the Potency [1] was “inactive”.
In the case of `CC(=O)c1cccc(-c2cnc3c(NC=O)cc(-c4ccccc4)cn23)c1`, the Potency [1] is reported as active: 20.6 µM.
In the case of `CCOC(=O)c1cc2c(ccn2C)n1CC(=O)N1CCC(C)CC1`, the Potency [1] is reported as “inactive”.
With `Cc1cccc(N(CC(=O)NCCSCc2ccccc2)S(C)(=O)=O)c1` the Potency [1] was inconclusive: 29.1 µM [inhibitor, single point].
With `CC(C)(C)c1ccc(OCCNC(=S)NC(=O)c2cccnc2)cc1` the Potency [1] was “inactive”.
For `Oc1[nH]c2ccccc2c1N=Nc1nncc2ccccc12`, the Potency [1] was inconclusive: 23.1 µM [inhibitor, single point].
With `CC(CCN1CCN=C1Nc1ccccc1)c1ccccc1` (centres undefined) the Potency [1] was inconclusive: 23.1 µM [inhibitor, single point].
With `CCN(CC)C(=O)C(=O)Nc1ccc(F)c(Cl)c1` the Potency [1] was “inactive”.
With `NS(=O)(=O)c1ccc(NC(=S)NCc2ccccc2Cl)cc1` the Potency [1] was inconclusive: 14.6 µM [inhibitor, partial curve, poor fit].
With `CCCCn1nc(C(=O)N[C@@H](CCSC)c2nc3ccccc3[nH]2)c2ccccc2c1=O` the Potency [1] was inconclusive: 32.6 µM [inhibitor, single point].
For `Cc1ccccc1C(=O)Nc1cc(-c2cc(C(C)(C)C)oc2C)nn1C`, the Potency [1] was inconclusive: 23.1 µM [inhibitor, single point].
For `CCc1c(C)sc(NC(=S)N2CCN(S(C)(=O)=O)CC2)c1C(=O)OC`, the Potency [1] was “inactive”.
In the case of `COc1ccc(-c2cc(C(F)(F)F)n3nc(-c4ccc(Cl)cc4)cc3n2)cc1OC`, the Potency [1] is reported as inconclusive: 29.1 µM [inhibitor, single point].
For `c1ccc2c(-c3[nH]ncc3CNCCCn3ncc4ccccc43)cccc2c1`, the Potency [1] was active: 11.6 µM.
In the case of `O=C(NCc1ccccc1)c1cccc(NC(=O)C2CCCC2)c1`, the Potency [1] is reported as “inactive”.
In the case of `COc1ccc(N2CN=C3SCC(=O)N3C2)cc1`, the Potency [1] is reported as inconclusive: 29.1 µM [inhibitor, single point].
In the case of `O=C(CCC1CCCCC1)NCCS(=O)(=O)N1CCN(c2ccccc2F)CC1`, the Potency [1] is reported as inconclusive: 23.1 µM [inhibitor, single point].
With `O=C(NC(=S)N1CCOCC1)c1cn(-c2ccccc2)nc1-c1ccccc1` the Potency [1] was inconclusive: 25.9 µM [inhibitor, single point].
For `CCCCNC(=O)CCn1c(=O)c2ccccc2n(Cc2ccc(F)cc2)c1=O`, the Potency [1] was inconclusive: 18.4 µM [inhibitor, single point].
With `COc1cc2c(cc1OC)[C@@H](NC(=O)C(C)C)[C@H](OCc1ccccc1)C2` the Potency [1] was “inactive”.
In the case of `C=CCN(CC(=O)Nc1cccnc1)S(=O)(=O)c1ccc(Cl)cc1`, the Potency [1] is reported as “inactive”.
With `NCCS` the Potency [1] was inconclusive: 29.9 µM [inhibitor, single point].
For `O=C(Cc1ccccc1)NC1CC(=O)N(c2ccc3c(c2)OCCO3)C1` (centres undefined), the Potency [1] was “inactive”.
For `C=CCn1c2ccccc2c2nnc(SCCN3CCCCC3)nc21`, the Potency [1] was active: 18.4 µM.
In the case of `COc1ccc(C(CCNCc2ccc(OC)c(OC)c2)c2ccc(F)cc2)cc1` (centres undefined), the Potency [1] is reported as “inactive”.
For `O=C(NCCc1cccs1)c1ccc(Cl)c(Cl)c1`, the Potency [1] was “inactive”.
For `COC(=O)c1sc(NC(=S)NC(=O)c2ccccc2C)nc1C`, the Potency [1] was inconclusive: 23.1 µM [inhibitor, single point].
For `Cc1onc(-c2ccccc2)c1CNS(=O)(=O)c1ccccc1[N+](=O)[O-]`, the activity change, negative = growth inhibition [1] was inconclusive: -31.8% [inhibitor].
